Sequences with one replicate were seen in a single cluster, so their values are uncertain.
These sequences were tested on ATP (assay: switch fluorescence ratio, 500 uM ATP over buffer (Cy3 cluster intensity, sum of 5 cycles each) (fold (ratio)); higher = stronger signal-on switching upon ATP binding; sequences stand for … in TCGTCGGCAGCGTCAGATGTGTATAAGAGACAGTTTTTTTTTTTTTTTTTTTTTTTTT…TC). Settings: aptamer strand: ATP DNA aptamer (quencher-CACCTGGGGGAGTATTGCGGAGGAAGG + anchor), 100 nM annealed; ATP concentration: 500 uM; one replicate.
Summary of the method: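 Cy3-labelled switching-strand clusters on a modified Illumina MiSeq flow-cell were annealed to 100 nM quencher-labelled ATP aptamer, imaged in selection buffer, then imaged after 15 min with 500 uM ATP at 22 °C. Five buffer/ATP cycles ran, with NaOH stripping and re-annealing between them. The fluorescence ratio is summed target-cycle over summed buffer-cycle Cy3 intensity per cluster, averaged per switch-domain sequence. Clusters outside 100-1000 RFU were excluded.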
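Note: ATP exposure 15 min at 22 °C before imaging.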

Row | Sequence | switch fluorescence ratio
1 | TCCGGTTGTT | 1.01
2 | TCCGTAGCTT | 5.23
3 | TCCGTCAGGG | 1.01
4 | TCCGTCCTGG | 0.988
5 | TCCGTGACC | 1.34
6 | TCCGTGAGAC | 3.69
7 | TCCGTGCCTG | 0.981
8 | TCCGTTCCAT | 1.07
9 | TCCTAAAAG | 1.1
10 | TCCTACCCAG | 1.38
11 | TCCTAGGAAA | 1.09
12 | TCCTAGGAT | 0.965
13 | TCCTAGTACC | 1.03
14 | TCCTAGTTAT | 1.08
15 | TCCTCTCCCC | 1.93
16 | TCCTCTGATT | 1.54
17 | TCCTCTGTA | 1.19
18 | TCCTGACTGA | 1.06
19 | TCCTGAGCTA | 1.04
20 | TCCTGATTA | 1.03
21 | TCCTGTAACG | 0.969
22 | TCCTGTTGTC | 0.982
23 | TCCTT | 0.987
24 | TCCTTCAGCC | 1.04
25 | TCCTTCATCT | 1.24

Row | Sequence | switch fluorescence ratio
26 | TCCTTGGCGC | 1.23
27 | TCCTTGTCAT | 1.07
28 | TCCTTTATAA | 1.04
29 | TCCTTTGACA | 1.08
30 | TCGAAAAGAA | 1.01
31 | TCGAAAGTTG | 1.06
32 | TCGAACACCA | 1.05
33 | TCGAACCAGC | 1.06
34 | TCGAAGAGTA | 0.961
35 | TCGAATACGT | 1.01
36 | TCGAATAGGG | 1.02
37 | TCGACATCTC | 1.03
38 | TCGACATGTA | 1.05
39 | TCGACCATTT | 1.01
40 | TCGACGACCG | 0.966
41 | TCGACTAAGT | 1.01
42 | TCGAGAAGGC | 1.04
43 | TCGAGACTA | 0.984
44 | TCGAGGATGC | 1.06
45 | TCGAGGTGTT | 1
46 | TCGAGTTC | 1.04
47 | TCGATAAGTA | 0.971
48 | TCGATGACA | 1.04
49 | TCGATTCAGA | 1.05
50 | TCGATTCCT | 1.04

Row | Sequence | switch fluorescence ratio
51 | TCGATTGTTT | 3.26
52 | TCGATTT | 0.979
53 | TCGATTTATG | 0.97
54 | TCGATTTCGT | 0.996
55 | TCGCAAGGGT | 1.76
56 | TCGCACCTCG | 1.15
57 | TCGCACGACT | 1.46
58 | TCGCAGGGTC | 1.33
59 | TCGCAGGTG | 2.55
60 | TCGCCATAAT | 1.05
61 | TCGCCCGAGG | 1.08
62 | TCGCCCTCAT | 1.03
63 | TCGCCGCTCT | 1.06
64 | TCGCCGGGCA | 1.03
65 | TCGCCGTTGC | 1.15
66 | TCGCCTCATG | 1
67 | TCGCGACTAT | 1.01
68 | TCGCGAGCTC | 1.31
69 | TCGCGCCTTA | 1.06
70 | TCGCGCTTG | 0.991
71 | TCGCGGCATT | 1.24
72 | TCGCGGCTAC | 4.79
73 | TCGCGGGATC | 0.975
74 | TCGCGGTAAC | 2.55
75 | TCGCGTCCGT | 1.01

Row | Sequence | switch fluorescence ratio
76 | TCGCTAGTTT | 0.991
77 | TCGCTCCACA | 1.28
78 | TCGCTCGCAG | 2.04
79 | TCGCTCGCTC | 1.88
80 | TCGCTCGGTC | 1.03
81 | TCGCTGGATC | 0.97
82 | TCGCTGTCGG | 1.01
83 | TCGGAAAGAT | 0.977
84 | TCGGAAGTGC | 1.21
85 | TCGGACGAGG | 1.01
86 | TCGGAGGCGT | 1.04
87 | TCGGAGTAGG | 1.03
88 | TCGGATAGGC | 0.991
89 | TCGGATGTGT | 0.979
90 | TCGGCACCGC | 1.04
91 | TCGGCAGGGC | 1.11
92 | TCGGCATAGG | 1.07
93 | TCGGCGAGGT | 0.991
94 | TCGGCGATGT | 0.999
95 | TCGGCGCGTC | 0.974
96 | TCGGCGTCCG | 1.01
97 | TCGGCGTGGC | 1.02
98 | TCGGCGTTTG | 0.993
99 | TCGGCTTCTA | 1.07
100 | TCGGCTTGAC | 1.01
